Scores whose standard error is large were omitted. The source holds two more conditions with little spread; they are left out. Read del as a deletion of the residues named and ins as an insertion between two positions. For part of these data: The concentration of ogerin is not given here.

The source of these data is the GPR68 mutational scans of Howard et al. (2025).

First the molecules themselves.
B1: GPR68, Q15743 (parent)
chain: MGNITADNSSMSCTIDHTIHQTLAPVVYVTVLVVGFPANCLSLYFGYLQIKARNELGVYLCNLTVADLFYICSLPFWLQYVLQHDNWSHGDLSCQVCGILLYENIYISVGFLCCISVDRYLAVAHPFRFHQFRTLKAAVGVSVVIWAKELLTSIYFLMHEEVIEDENQHRVCFEHYPIQAWQRAINYYRFLVGFLFPICLLLASYQGILRAVRRSHGTQKSRKDQIQRLVLSTVVIFLACFLPYHVLLLVRSVWEASCDFAKGVFNAYHFSLLLTSFNCVADPVLYCFVSETTHRDLARLRGACLAFLTCSRTGRAREAYPLGAPEASGKSGAQGEEPELLTKLHPAFQTPNSPGSGGFPTGRLA

Variants of B1 are the subject of data set [1]. In words: cAMP reporter score (Enrich2 score, wild type = 0); higher = more signal; HEK293T, FACS bins.
Variants of B1 are the subject of data set [2]. Kind of data set: surface expression score (Enrich2 score, wild type = 0); higher = more signal; HEK293T, FACS bins.

Regarding Y320T, the cAMP reporter score in data set [1] (pH 5.5) was 1.98; in data set [1] (pH 6), 0.517; in data set [1] (pH 6, modulator: ogerin), 0.626. Besides, in data set [2], the surface expression score is 0.714.

Consider Y320S, for which the cAMP reporter score is -0.281 in data set [1] (pH 5.5); -0.293 in data set [1] (pH 6); 0.112 in data set [1] (pH 6, modulator: ogerin); -0.091 in data set [1] (pH 6.5, modulator: ogerin). For the same variant, in data set [2], the surface expression score worked out at 0.048.

For P325_E326insGS, the cAMP reporter score was 0.652 in data set [1] (pH 5.5); 0.798 in data set [1] (pH 6); 0.484 in data set [1] (pH 6, modulator: ogerin); 0.632 in data set [1] (pH 6.5, modulator: ogerin). Besides, the surface expression score in data set [2] amounted to 0.603.

On to A324_P325insGSG, for which the cAMP reporter score in data set [1] (pH 5.5) worked out at 0.52; in data set [1] (pH 6), 1.02; in data set [1] (pH 6, modulator: ogerin), 1.25; in data set [1] (pH 6.5, modulator: ogerin), 1.26. Further, in data set [2], the surface expression score came out at 0.646.

Consider G323_A324insGSG, for which the cAMP reporter score in data set [1] (pH 5.5) was 0.448; in data set [1] (pH 6), -0.447; in data set [1] (pH 6, modulator: ogerin) it was 0.272; in data set [1] (pH 6.5, modulator: ogerin) it was 0.29. Moreover, the surface expression score in data set [2] was -0.006.

With Y320_P321insGSG, the cAMP reporter score in data set [1] (pH 5.5) was -0.403; in data set [1] (pH 6, modulator: ogerin) it was 0.392; in data set [1] (pH 6.5, modulator: ogerin), 0.402. For the same variant, the surface expression score in data set [2] stood at 0.033.

On to K330F, for which the cAMP reporter score in data set [1] (pH 5.5) is 0.269; in data set [1] (pH 6), -0.327; in data set [1] (pH 6, modulator: ogerin) it was 0.476; in data set [1] (pH 6.5, modulator: ogerin), -0.349. In addition, the surface expression score in data set [2] was -0.514.

Take K330D: the cAMP reporter score was -1.4 in data set [1] (pH 5.5); -0.934 in data set [1] (pH 6); -0.793 in data set [1] (pH 6, modulator: ogerin); -1.09 in data set [1] (pH 6.5, modulator: ogerin). The surface expression score in data set [2] was -1.11.

For the variant K330C, the cAMP reporter score in data set [1] (pH 5.5) is -0.651; in data set [1] (pH 6), -1.39; in data set [1] (pH 6, modulator: ogerin), -0.463; in data set [1] (pH 6.5, modulator: ogerin), -1.33. Also, in data set [2], the surface expression score was -0.843.

As to K330E, the cAMP reporter score in data set [1] (pH 5.5) is -0.363; in data set [1] (pH 6), -0.203; in data set [1] (pH 6, modulator: ogerin) it was -0.43; in data set [1] (pH 6.5, modulator: ogerin) it was -0.25. The surface expression score in data set [2] was -0.485.

As for K330A, the cAMP reporter score in data set [1] (pH 5.5) is 0.649; in data set [1] (pH 6), -0.229; in data set [1] (pH 6, modulator: ogerin), 0.47; in data set [1] (pH 6.5, modulator: ogerin) it was 1. In data set [2], the surface expression score was 0.986.

On to P321T, for which the cAMP reporter score is 0.446 in data set [1] (pH 5.5); 0.653 in data set [1] (pH 6, modulator: ogerin); -0.32 in data set [1] (pH 6.5, modulator: ogerin). In data set [2], the surface expression score worked out at 0.443.

As to P321G, the cAMP reporter score in data set [1] (pH 5.5) is -1.06; in data set [1] (pH 6) it was -1.36; in data set [1] (pH 6, modulator: ogerin), -0.327; in data set [1] (pH 6.5, modulator: ogerin) it was -0.201. Also, in data set [2], the surface expression score was -0.861.

As to P321N, the cAMP reporter score in data set [1] (pH 5.5) is -0.328; in data set [1] (pH 6) it was -0.302; in data set [1] (pH 6, modulator: ogerin) it was -0.401; in data set [1] (pH 6.5, modulator: ogerin) it was -0.117. Besides, the surface expression score in data set [2] is -0.605.

Regarding P321F, the cAMP reporter score in data set [1] (pH 5.5) is 0.75; in data set [1] (pH 6, modulator: ogerin) it was 0.684; in data set [1] (pH 6.5, modulator: ogerin) it was 0.397. For the same variant, in data set [2], the surface expression score is -0.145.

Regarding P321K, the cAMP reporter score in data set [1] (pH 5.5) is -0.068; in data set [1] (pH 6), -0.023; in data set [1] (pH 6, modulator: ogerin), 0.221; in data set [1] (pH 6.5, modulator: ogerin), 0.013. Also, in data set [2], the surface expression score was -0.787.

Turning to P321V, the cAMP reporter score in data set [1] (pH 5.5) was -1.08; in data set [1] (pH 6), -1.05; in data set [1] (pH 6, modulator: ogerin), -1.36; in data set [1] (pH 6.5, modulator: ogerin), -1.44. Besides, in data set [2], the surface expression score is -1.45.

As for P321A, the cAMP reporter score in data set [1] (pH 5.5) is -0.665; in data set [1] (pH 6, modulator: ogerin), 0.693; in data set [1] (pH 6.5, modulator: ogerin) it was -0.102. The surface expression score in data set [2] is 1.03.

On to P321M, for which the cAMP reporter score turned out to be 0.781 in data set [1] (pH 5.5); 0.647 in data set [1] (pH 6, modulator: ogerin); 0.37 in data set [1] (pH 6.5, modulator: ogerin). The surface expression score in data set [2] was determined as 0.25.

Take P321H: the cAMP reporter score in data set [1] (pH 5.5) was 0.752; in data set [1] (pH 6), -0.469; in data set [1] (pH 6, modulator: ogerin) it was 0.344; in data set [1] (pH 6.5, modulator: ogerin), -0.295. For the same variant, the surface expression score in data set [2] is 0.847.

P321R: the cAMP reporter score was 0.377 in data set [1] (pH 5.5); -0.444 in data set [1] (pH 6); -0.373 in data set [1] (pH 6, modulator: ogerin); -0.648 in data set [1] (pH 6.5, modulator: ogerin). Also, in data set [2], the surface expression score was -0.759.

With P321I, the cAMP reporter score is -0.035 in data set [1] (pH 5.5); 0.104 in data set [1] (pH 6, modulator: ogerin); -0.603 in data set [1] (pH 6.5, modulator: ogerin). Also, in data set [2], the surface expression score was -0.533.

For the variant P321Q, the cAMP reporter score in data set [1] (pH 5.5) is 0.294; in data set [1] (pH 6), 0.377; in data set [1] (pH 6, modulator: ogerin), 0.577; in data set [1] (pH 6.5, modulator: ogerin) it was -0.079. For the same variant, the surface expression score in data set [2] is 0.295.

As to P321E, the cAMP reporter score in data set [1] (pH 5.5) stood at 0.911; in data set [1] (pH 6), 2.92; in data set [1] (pH 6, modulator: ogerin), 1.39; in data set [1] (pH 6.5, modulator: ogerin), 1.15. Also, the surface expression score in data set [2] was determined as 1.16.

For the variant P321W, the cAMP reporter score in data set [1] (pH 5.5) was 0.849; in data set [1] (pH 6), -0.675; in data set [1] (pH 6, modulator: ogerin), 0.826; in data set [1] (pH 6.5, modulator: ogerin), 0.248. In data set [2], the surface expression score is -0.224.

As to P321L, the cAMP reporter score was -0.673 in data set [1] (pH 5.5); -1.21 in data set [1] (pH 6); -0.353 in data set [1] (pH 6, modulator: ogerin); -0.478 in data set [1] (pH 6.5, modulator: ogerin). Further, the surface expression score in data set [2] was -1.46.

Take P321C: the cAMP reporter score worked out at 0.283 in data set [1] (pH 5.5); 0.228 in data set [1] (pH 6); 0.384 in data set [1] (pH 6, modulator: ogerin); 0.437 in data set [1] (pH 6.5, modulator: ogerin). In addition, in data set [2], the surface expression score is -0.064.

In the case of P321Y, the cAMP reporter score in data set [1] (pH 5.5) is 0.547; in data set [1] (pH 6), -1.04; in data set [1] (pH 6, modulator: ogerin), 0.718; in data set [1] (pH 6.5, modulator: ogerin), -0.019. Further, the surface expression score in data set [2] was found to be 0.36.

Regarding P321S, the cAMP reporter score in data set [1] (pH 5.5) was 0.038; in data set [1] (pH 6, modulator: ogerin) it was 0.519; in data set [1] (pH 6.5, modulator: ogerin) it was 0.971. Further, the surface expression score in data set [2] amounted to 1.14.

For the variant P321D, the cAMP reporter score was -0.094 in data set [1] (pH 5.5); -0.38 in data set [1] (pH 6); -0.048 in data set [1] (pH 6, modulator: ogerin); 0.068 in data set [1] (pH 6.5, modulator: ogerin). Also, the surface expression score in data set [2] turned out to be 0.462.

Take G323_A324insGS: the cAMP reporter score in data set [1] (pH 5.5) is 0.299; in data set [1] (pH 6), -0.559; in data set [1] (pH 6, modulator: ogerin) it was -0.496; in data set [1] (pH 6.5, modulator: ogerin), 0.295. Moreover, in data set [2], the surface expression score amounted to 0.058.
